# According to the antibiotic and cytotoxicity screens of Wong et al. (2023):
# Some of the results follow.
# Tested on: HSkMC (human skeletal muscle cells)
# Test: cytotoxicity call (relative viability < 0.9)
# Settings: 10 µM
row,Compound,cytotoxicity call
1,C[C@@H]1CCCCO[C@H](CN(C)C(=O)NC2CCCCC2)[C@H](C)CN([C@@H](C)CO)C(=O)c2cc(NS(=O)(=O)c3ccccc3)ccc2O1,inactive
2,Cc1noc(C)c1NC(=O)Nc1cccc2c1O[C@@H](CN(C)S(C)(=O)=O)[C@@H](C)CN([C@@H](C)CO)C2=O,inactive
3,COc1cccc([C@@H](N)c2ccccc2)c1,inactive
4,COc1ccc(C#Cc2cnc3c(c2)C(=O)N([C@H](C)CO)C[C@H](C)[C@H](CN(C)S(=O)(=O)c2cccs2)O3)cc1OC,inactive
5,COc1ccc(CN(C)C[C@@H]2OCCCC[C@H](C)Oc3ccc(NC(=O)c4ccccc4)cc3C(=O)N([C@@H](C)CO)C[C@H]2C)cc1,inactive
6,CCN1C(=O)[C@@H]2CN(C(C)=O)C[C@@H]2C12CCN(C(=O)COC)CC2,inactive
7,COc1ccc2c(c1)OCC(Cc1ccc(OC)c(O)c1)C2=O (configuration not stated),inactive
8,C[C@@H]1CN([C@H](C)CO)C(=O)Cc2cc(NC(=O)c3ccncc3)ccc2O[C@H]1CN(C)Cc1ccncc1,inactive
9,C[C@@H]1CN([C@@H](C)CO)C(=O)c2cccc(NS(=O)(=O)c3ccccc3)c2O[C@H]1CN(C)S(=O)(=O)c1ccc(F)cc1,inactive
10,O=C(C[C@H]1CC[C@@H]2[C@H](COC[C@@H](O)CN2C(=O)c2ccncc2)O1)NC1CCC1,inactive
11,COc1ccc(NC(=O)Nc2ccc3c(c2)C(=O)N([C@H](C)CO)C[C@@H](C)[C@H](CN(C)S(=O)(=O)c2ccccc2)OCCCC[C@@H](C)O3)cc1,inactive
12,C[C@@H]1CN([C@@H](C)CO)S(=O)(=O)c2ccc(-c3cccc(C(=O)N(C)C)c3)cc2O[C@H]1CN(C)C(=O)Cc1ccccn1,inactive
